Measured values reported in paper PMC4336329 (PLoS ONE, 2015).
Among all 310,000 compounds or so, about 14,000 (4.5%) showed an effect of 50% or more. Effects have a minus sign here. The list shows a part of the results.

These compounds were tested against human ether-à-go-go-related gene (hERG) potassium channel (human, UniProt Q12809) (assay: primary screen, population patch clamp on CHO cells stably expressing hERG).
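Further: peak tail current of the secondary pulse compared with the same well before compound.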

human ether-à-go-go-related gene (hERG) potassium channel, sequence (Q12809 whole entry, looked up): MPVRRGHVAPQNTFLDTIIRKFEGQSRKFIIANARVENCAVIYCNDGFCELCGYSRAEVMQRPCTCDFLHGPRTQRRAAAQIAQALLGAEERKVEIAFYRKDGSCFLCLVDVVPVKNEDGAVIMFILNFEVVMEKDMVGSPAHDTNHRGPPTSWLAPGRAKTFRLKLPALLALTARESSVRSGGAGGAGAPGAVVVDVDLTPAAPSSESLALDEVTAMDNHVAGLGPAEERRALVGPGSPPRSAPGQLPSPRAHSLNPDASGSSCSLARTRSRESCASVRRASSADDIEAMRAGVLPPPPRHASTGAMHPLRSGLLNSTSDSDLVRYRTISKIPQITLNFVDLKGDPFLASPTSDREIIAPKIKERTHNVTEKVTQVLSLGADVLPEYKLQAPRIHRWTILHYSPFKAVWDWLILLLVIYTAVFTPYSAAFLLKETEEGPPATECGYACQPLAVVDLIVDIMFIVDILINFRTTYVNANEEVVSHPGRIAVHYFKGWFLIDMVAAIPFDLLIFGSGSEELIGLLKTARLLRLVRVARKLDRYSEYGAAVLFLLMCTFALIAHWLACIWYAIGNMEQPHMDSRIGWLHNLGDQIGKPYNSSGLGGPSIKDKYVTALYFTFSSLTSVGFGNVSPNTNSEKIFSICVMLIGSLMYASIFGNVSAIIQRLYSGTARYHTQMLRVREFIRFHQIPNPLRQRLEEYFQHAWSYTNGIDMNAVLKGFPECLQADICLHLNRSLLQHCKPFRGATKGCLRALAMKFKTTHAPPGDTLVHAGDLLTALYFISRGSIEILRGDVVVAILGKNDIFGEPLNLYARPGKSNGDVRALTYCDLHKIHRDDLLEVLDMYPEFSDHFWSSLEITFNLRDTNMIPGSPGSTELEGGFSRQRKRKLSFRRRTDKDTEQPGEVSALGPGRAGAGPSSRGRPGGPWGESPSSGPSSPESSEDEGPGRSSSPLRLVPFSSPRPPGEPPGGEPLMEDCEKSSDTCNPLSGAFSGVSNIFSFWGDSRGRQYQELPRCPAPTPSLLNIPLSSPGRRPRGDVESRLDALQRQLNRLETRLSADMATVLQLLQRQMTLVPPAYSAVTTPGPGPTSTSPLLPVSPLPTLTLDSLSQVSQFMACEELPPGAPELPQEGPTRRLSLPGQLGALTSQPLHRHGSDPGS

SMILES | hERG current change (%, negative = inhibition) at 10uM [%]
O=C(NCc1cccnc1)C1CC(c2ccccc2O)=NO1 (stereo not drawn) | 1.66
Cc1ccc(O)c(C(CC(=O)NC2CCCCC2)c2ccccc2)c1 (stereo not drawn) | 11.1
O=C(Cn1cnc([N+](=O)[O-])c1)c1ccc(Cl)cc1 | -6.34
O=C(c1ccccc1)c1coc2ccc(O)c(Cl)c12 | -10.9
COc1ccccc1NC(=O)c1ccc2nc(C)sc2c1 | -1.41
Cc1cc(N2CCCCC2)nc2ccccc12 | -9.74
CCc1ccc(OCc2nnc(SCC(=O)NC3CCCCC3)o2)cc1 | 13.7
Cc1cc(NCCOCCO)n2c(nc3ccccc32)c1C#N | -46
CSc1ccccc1-n1nnnc1SCc1ccccc1 | -19.9
COc1ccccc1-c1nnc(SCC(=O)O)n1-c1ccccc1 | 9.58
Cc1cc2ncc(-c3ccc(Cl)cc3)c(N)n2n1 | -20.9
CC(C)Cc1ccccc1S(N)(=O)=O | 5.14
COc1ccccc1CNC(=O)c1ccc(-c2ccccc2C(F)(F)F)o1 | 1.38
O=Cc1cn(-c2ccccc2)nc1-c1cc2cc(O)ccc2oc1=O | 1.74
O=C(N/N=C/c1ccc2c(c1)OCO2)c1sc2cccc(Cl)c2c1Cl | 1.95
Cc1ccc(C)c(NC(=O)CSc2nc3c(c(=O)n2C)SC(C)C3)c1 (stereo not drawn) | -8.57
Cc1oc2cc3oc(=O)ccc3cc2c1C | 17.5
Cc1cccc(N2CCN(C(=O)CCC(=O)N3Cc4ccccc4Oc4ncccc43)CC2)c1C | -21
COCC(=O)Nc1ccc(C(N)=O)cc1 | -8.82

SMILES | hERG current change (%, negative = inhibition) at 10uM [%]
COc1ccc(N(CC(=O)NCc2ccc(F)cc2)C(=O)c2snc(C(N)=O)c2N)cc1OC | 9.58
O=C(COc1ccc(S(=O)(=O)N2CCOCC2)cc1)Nc1ccccc1Cl | -1.03
COc1ccc2nc(C)cc(Nc3ccccc3O)c2c1.Cl | -20.3
CCOc1ccc2c(c1)sc(N)[n+]2Cc1cc(C)cc2cccnc12.[Br-] | -74.9
CCN(CC)CCNC(=O)Cn1c(=O)c2cccn2c2ccc(F)cc21 | 3.72
Cc1cc(=O)oc2c(C)c(OC(C)C(=O)NC3CCN(Cc4ccccc4)CC3)ccc12 (stereo not drawn) | -48.1
COC(=O)c1cc(NS(=O)(=O)c2ccc(NC(C)=O)cc2)cc(C(=O)OC)c1 | 0.11
COc1ccc(CC(=O)Nc2cc(=O)n(C)c(=O)n2C)cc1OC | 23.5
CCc1cccc(NC(=O)C2CCCN2C(=O)Nc2ccc(C)cc2)c1 (stereo not drawn) | 13.5
COc1ccc(C(CNC(=O)c2cc3c(s2)CCCC3)N2CCOCC2)cc1 (stereo not drawn) | -23.5
Cc1cccc(C)c1C(OCCN(C)C)C1CCCCC1.O=C(O)C(=O)O (stereo not drawn) | -11.7
CC1(C)SC(=S)N(/N=C/c2ccccc2)C1N(O)C(=O)Nc1ccc([N+](=O)[O-])cc1 (stereo not drawn) | 8.43
CC(/C=N/NC(=O)COc1ccccc1C)=N\NC(=O)COc1ccccc1C | 21.9
CCOc1ccc(NC(=O)C2C3C=CC4(O3)C2C(=O)N(Cc2cccnc2)C4C(=O)NC2CCCCC2)cc1 (stereo not drawn) | 16
COc1ccc(-c2csc3nc(-c4ccccc4OC)oc(=O)c23)cc1 | 19.1
Cc1ccc(S(=O)(=O)N(C)C)cc1NC(=O)COC(=O)Cc1cccs1 | -74.5
Cc1ccn2cc(C34CC5CC(CC(C5)C3)C4)nc2c1 | -31.1
CC1(C)Oc2ccc(C(=O)N3CCCC3)cc2N(CC(=O)NCc2ccccc2)C1=O | -3.94
CCOC(=O)c1cccc(NC(=S)NC(=O)c2cccnc2)c1 | 6.13

SMILES | hERG current change (%, negative = inhibition) at 10uM [%]
COC(=O)N/N=C/c1cn(CCCOc2ccc(C)cc2)c2ccccc12 | -0.441
COC(=O)C(C(=O)OC)C(C(=O)OC)C(C(=O)OC)C(=O)OC | -1.88
CCCC[C@H](CN[C@@H](CNC)[C@H](C)CC)NCCC12CCC(CC1)C2 | 10.4
CCS(=O)(=O)N1CCN(Cc2nc3ccccc3c(=O)[nH]2)CC1 | -12.9
Cc1cc(S(=O)(=O)N2CCN(c3ccccc3O)CC2)c(C)s1 | -8.47
COc1c(Br)cc(/C=N/n2c(-c3ccccc3)n[nH]c2=S)c(O)c1Br | 22.8
COc1cccc(C(=O)Nc2ccc(NC(=O)C3CC=CCC3C(=O)O)cc2)c1 (stereo not drawn) | 24
CC(C(=O)Nc1ncc([N+](=O)[O-])s1)N1C(=O)c2ccccc2S1(=O)=O (stereo not drawn) | -3.37
O=C(CCn1ccnc1)Nc1cc(Cl)ccc1O | 14.3
CC1CC(C)CN(CCCNC(=O)C2CCC(=O)N2C2CCCC2)C1 (stereo not drawn) | 11
CC(=O)N1c2ccc(S(=O)(=O)NCC3CCC(C(=O)Nc4cc(C)ccn4)CC3)cc2CC1C (stereo not drawn) | 5.06
CC(/C=N/NC(=O)c1cc(-c2cccn2C)n[nH]1)=C\c1ccccc1 | -3.38
CCn1c(SCC(=O)NNC(=O)c2ccc(C)cc2)nnc1C(C)C | 19.8
Cc1ccc(Cl)cc1N1CCN(C(c2ccc(C#N)cc2)c2nnnn2C2CCCC2)CC1 (stereo not drawn) | 5.19
CC(O)CSc1nc2c(c(=O)[nH]c(=O)n2C)n1Cc1ccccc1 (stereo not drawn) | -41.1
CCN(CC(=O)Nc1c(F)cccc1F)C(=O)C(C)SCc1nc2sc(C)c(C)c2c(=O)[nH]1 (stereo not drawn) | -34
Oc1[nH]c2ccc(Br)cc2c1N=Nc1nn[nH]n1 | 18.4
COC(=O)c1cc(C)nc(N)c1C#N | -5.58
COc1cc(C#N)c(NC(=S)N2CCOCC2)cc1OC | 16.2
